# In PubChem BioAssay AID504845 (National Center for Advancing Translational Sciences (NCATS), 2011):
# Several values for one entry are separate records, joined by “and”; a condition that tells them apart may be missing. Equal values may be shown once. The whole screen tested about 390,000 compounds, of which about 150 (0.038%) were called active. This list was built around the results that the source calls inconclusive (neither active nor inactive); the mix of calls is not that of the screen. Calls follow the shape of the dose curve; as a rule, active = well fitted inhibition curve with a large enough effect; inconclusive = small, poorly fitted or top-dose-only effect; inactive = no such curve, though single readings can be large or run the other way. Potencies beside an inconclusive call are fits to weak or partial responses and may not hold up.
# Molecular target: Regulator of G-protein signaling 4 (Homo sapiens) (UniProt P49798)
# Assay: Inhibitors of Regulator of G Protein Signaling (RGS) 4: qHTS; also: nearly all actives have a fitted effect of over 75% in size
# Conditions: Transcreener GDP fluorescence polarization, RGS4-accelerated GTP hydrolysis; series mostly up to 114 µM
# Procedure, shortened: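 MLSMR compounds (23 nl, pin-transferred) preincubated 10 min at room temperature with a 500nM (2x) first reagent, then RGS4 at 900nM (2x) plus Transcreener GDP mix added; fluorescence polarization (620/688 nm) read before and after 90 min at 30 °C.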
# Potency is read from the fitted curve at half-maximal effect; tags tell the direction and shape of the fitted curve.
# UniProt P49798, sequence (P49798 whole entry, looked up): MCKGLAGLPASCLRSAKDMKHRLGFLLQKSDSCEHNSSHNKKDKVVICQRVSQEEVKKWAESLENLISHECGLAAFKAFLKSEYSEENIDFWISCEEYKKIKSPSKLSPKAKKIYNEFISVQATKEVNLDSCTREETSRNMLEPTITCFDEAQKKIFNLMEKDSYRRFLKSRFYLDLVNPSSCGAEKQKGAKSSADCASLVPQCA
row,SMILES,Potency
1,Cc1ccc(C(=O)c2cc3ccccc3o2)cc1,inactive
2,COc1ccc(C)cc1Nc1nc(-c2c(C)[nH]c3ccccc23)cs1,"inconclusive: 50.1 µM [inhibitor, partial curve, poor fit]"
3,Cn1c(=O)oc2cc(S(=O)(=O)NCc3ccncc3)ccc21,inactive
4,C#CCOCCOCCOCCNc1nc(N2CCN(C(=O)CCCCCCCCCCNC(=O)[C@H]([C@@H](C)CC)n3cc(CCCCN=C(N)N)nn3)CC2)nc(N2CCN(C(=O)CCCCCCCCCCNC(=O)[C@H](CO)n3cc(CCCSC)nn3)CC2)n1,"inconclusive: 20 µM [inhibitor, full curve, poor fit]"
5,COc1ccc(N2C(=O)CC(Sc3ccccc3C(=O)O)C2=O)c([N+](=O)[O-])c1 (configuration not stated),"inconclusive: 56.2 µM [inhibitor, partial curve, poor fit]"
6,O=C(O)CN1C(=O)/C(=C\C(Br)=C\c2ccccc2)SC1=S,"inconclusive: 25.1 µM [inhibitor, full curve, poor fit]"
7,Cc1c(Cl)cccc1NC(=S)NCc1cccn1C,"inconclusive: 50.1 µM [inhibitor, partial curve, poor fit]"
8,O=C(O)CCn1cc(-c2ccc(Cl)cc2)nc1-c1ccc(Cl)nc1,inactive
9,COC(=O)c1c(-c2ccc(S(C)(=O)=O)cc2)sc2cc(OC)ccc12,"inconclusive: 79.4 µM [inhibitor, partial curve, poor fit]"
10,O=C(NNC(=S)NC(=O)c1ccc(F)cc1)c1ccncc1,"inconclusive: 89.1 µM [inhibitor, partial curve, poor fit]"
11,CC1=C(c2ccc(C)c(C)c2)S(=O)(=O)N=C1N1CCC(C(=O)NCCc2ccc(Cl)cc2)CC1,inactive
12,O=C(O)c1ccccc1NC(c1ccccc1)c1ccc2cccnc2c1O (configuration not stated),"inconclusive: 17.8 µM [inhibitor, full curve, poor fit]"
13,Cc1ccc(/C=C/C(=O)N2CCN(S(=O)(=O)c3c(C)c(C)cc(C)c3C)CC2)o1,"inconclusive: 44.7 µM [inhibitor, partial curve, poor fit]"
14,Cc1ccc(C)c(S(=O)(=O)Nc2nc3ccc(S(N)(=O)=O)cc3s2)c1,"inconclusive: 50.1 µM [inhibitor, partial curve, poor fit]"
15,O=C(O)CN1C(=O)/C(=C\c2cccc(OCc3ccccc3F)c2)SC1=S,"inconclusive: 50.1 µM [inhibitor, partial curve, poor fit]"
16,N#CC1=C(S)N(c2ccc(F)cc2)C(c2ccco2)NC1=O (configuration not stated),"inconclusive: 79.4 µM [inhibitor, partial curve, poor fit]"
17,COc1ccc(S(=O)(=O)n2nc(-n3c(C)ccc3C)c3c(F)cccc32)cc1OC,"inconclusive: 50.1 µM [inhibitor, partial curve, poor fit]"
18,CCn1c(SCC(=O)c2cc(C)n(C)c2C)nnc1-c1ccccc1,inactive
19,CCOc1ccccc1N(C(=O)c1snc(C(N)=O)c1N)C(C(=O)NC1CCCC1)c1cccs1 (configuration not stated),inactive
20,Cc1ccc(NC(=O)C2CCN(S(=O)(=O)c3c(C)noc3C)CC2)cc1,"inconclusive: 89.1 µM [inhibitor, partial curve, poor fit]"
21,O=C1CCCN1c1ccc(CNS(=O)(=O)c2ccc(F)cc2)cc1,inactive
22,COc1cc(/C=C2/C(=O)NN(c3cccc(F)c3)C2=O)ccc1OC(=O)c1ccco1,"inconclusive: 39.8 µM [inhibitor, full curve, poor fit]"
23,Cc1ccc(-n2ncc3c(NCc4ccco4)ncnc32)cc1C,inactive

row,SMILES,Potency
1,CC[n+]1ccc(/C=C/c2ccc(N(C)C)cc2)c2ccccc21,"inconclusive: 50.1 µM [inhibitor, partial curve, poor fit]"
2,CC(=O)c1cccc(OCC(O)CNCCc2ccc(Cl)cc2)c1 (configuration not stated),inactive
3,COCCCN1C(=O)c2ccc(C(=O)OCC(=O)N(C)c3ccccc3)cc2C1=O,inactive
4,O=C(N/N=C\c1ccc(F)cc1)c1csnn1,"inconclusive: 79.4 µM [inhibitor, partial curve, poor fit]"
5,Cc1cc(C(F)(F)F)c(C#N)c(SCC(=O)Nc2nc3ccccc3s2)n1,inactive
6,Cc1ccc(NCCC(=O)c2cccc([N+](=O)[O-])c2)cc1,inactive
7,CCCCCCCC/C=C\CCCCCCCC(=O)NCCc1ccc(O)c(O)c1,"inconclusive: 70.8 µM [inhibitor, single point] and inconclusive: 15 µM [inhibitor, partial curve, poor fit]"
8,COc1ccc2c(Cl)c(C(=O)N/N=C/c3cccnc3)sc2c1,"inconclusive: 44.7 µM [inhibitor, partial curve, poor fit]"
9,O=C(CCN1C(=O)/C(=C/c2ccccc2F)SC1=S)Nc1ccccn1,"inconclusive: 70.8 µM [inhibitor, single point]"
10,Cc1cc(NCCCN2CCOCC2)n2nc(C)c(-c3ccccc3)c2n1,inactive
11,Oc1ccc(F)c2cccnc12,"inconclusive: 39.8 µM [inhibitor, partial curve, poor fit]"
12,C=CCOc1ccc(CNn2cn[nH]c2=S)cc1OC,inactive
13,C=CCn1c(SCc2ccccc2C#N)nnc1-c1cc(Br)ccc1O,inactive
14,C/C(=N\NC(=O)c1cc2c(s1)CCC(C)C2)c1ccc[nH]1 (configuration not stated),inactive
15,COc1ccc(-n2nc([N+](=O)[O-])c(=NC3CCN(Cc4ccccc4)CC3)n2O)cc1,inactive
16,C=CCSC1=Nc2sccc2C2=NC(=O)CN12,"inconclusive: 79.4 µM [inhibitor, single point]"
17,Cn1c(N)c(C(=O)COC(=O)c2ccccc2C(=O)c2ccc(Cl)c([N+](=O)[O-])c2)c(=O)n(C)c1=O,inactive
18,COc1cc2c(=O)c(C(=O)c3ccc(C)c(C)c3)cn(Cc3ccccc3F)c2cc1OC,inactive
19,O=C(N/N=C/c1ccc(N2CCOCC2)cc1)c1ccccc1OCCOc1ccccc1,"inconclusive: 56.2 µM [inhibitor, partial curve, poor fit]"
20,N#Cc1cc([N+](=O)[O-])ccc1Oc1cccc(/C=N/NC(=O)c2ccc(Cl)cc2)c1,"inconclusive: 31.6 µM [inhibitor, full curve, poor fit]"
21,O=S(=O)(c1ccc2ccccc2c1)N1CCN(c2nc(-c3ccccc3)nc3ccccc23)CC1,inactive
22,COc1cc(C(=O)NCC(=O)N/N=C/c2ccc(-c3ccc([N+](=O)[O-])cc3)o2)cc(OC)c1OC,"inconclusive: 17.8 µM [inhibitor, full curve, poor fit]"
23,O=C(Nc1ccc(OCC(=O)N2CCC(Cc3ccccc3)CC2)cc1)c1ccco1,inactive

row,SMILES,Potency
1,CC(C(=O)Nc1ccc2c(c1)OCO2)N1CCN(C)CC1 (configuration not stated),inactive
2,COc1ccc(Br)cc1C(=O)Nc1ccc2oc(-c3cccnc3)nc2c1,"inconclusive: 70.8 µM [inhibitor, partial curve, poor fit]"
3,O=C1CSC2=NCN(c3ccc4c(c3)OCO4)CN12,"inconclusive: 89.1 µM [inhibitor, single point]"
4,O=C(COc1ccc(/C=C\[N+](=O)[O-])cc1)N1CCOCC1,"inconclusive: 17.8 µM [inhibitor, full curve, poor fit]"
5,CCCNC(=O)NNC(=O)c1ccc(F)cc1,"inconclusive: 79.4 µM [inhibitor, partial curve, poor fit]"
6,Cc1ccc(-c2cc(NC(=O)c3ccccc3Cl)on2)cc1,inactive
7,CCCOc1ccccc1-c1nc(SCC(=O)c2ccccc2)n[nH]1,inactive
8,Cn1c(=O)n(Cc2ccccc2Cl)c2ccccc21,"inconclusive: 20 µM [inhibitor, full curve, poor fit]"
9,CCOC(=O)c1c(NC(=O)COc2cccc(C(F)(F)F)c2)sc2c1CCC(C)C2 (configuration not stated),"inconclusive: 89.1 µM [inhibitor, single point]"
10,Cc1ccc(-n2ncc3c(NCCCN4CCCC4=O)ncnc32)c(C)c1,"inconclusive: 89.1 µM [inhibitor, single point]"
11,CCOC(=O)c1c(C)[nH]c(C)c1C(=O)COC(=O)c1ccc(Cl)c(S(=O)(=O)NCc2ccccc2)c1,"inconclusive: 79.4 µM [inhibitor, partial curve, poor fit]"
12,CCOC(=O)C1CCN(C(=O)c2ccccc2NC(=O)c2ccc(Cl)cc2)CC1,"inconclusive: 79.4 µM [inhibitor, partial curve, poor fit]"
13,CCCOc1ccc(/C=C/C(=O)Nc2sc(C)c(C)c2C(=O)OCC)cc1OC,"inconclusive: 44.7 µM [inhibitor, partial curve, poor fit]"
14,O=[N+]([O-])c1ccccc1/C=N/N1CCN(c2ccc(Cl)cc2)CC1,inactive
15,CS(=O)(=O)NN1C(=O)c2ccccc2NC1c1cccs1 (configuration not stated),"inconclusive: 31.6 µM [inhibitor, full curve, poor fit]"
16,CC(C)OC(=O)CSc1nc2cc3c(cc2cc1C#N)OCO3,inactive
17,c1ccc(C2CSc3ccccc3N2)cc1 (configuration not stated),"inconclusive: 50.1 µM [inhibitor, partial curve, poor fit]"
18,Cc1cc(N2CCOCC2)c(F)cc1C(=O)c1ccccc1,inactive
19,N#CC1=C(Nc2ccccc2Cl)SC(c2ccccc2O)NC1=O (configuration not stated),"inconclusive: 31.6 µM [inhibitor, full curve, poor fit]"
20,COc1ccc(N2C(=O)CSC(c3ccccc3)C2=O)cc1 (configuration not stated),"inconclusive: 44.7 µM [inhibitor, partial curve, poor fit]"
21,CCOc1ccc(NC(=O)CCN2CCN(S(=O)(=O)c3cc(Cl)ccc3OC)CC2)cc1,inactive
